Assay results from US20230114801A1 (SYSTIMMUNE, published 2023).

B1: SI-49P8 (other)
chain 1: EIVMTQSPSTLSASVGDRVIITCQASESISSWLAWYQQKPGKAPKLLIYEASKLASGVPSRFSGSGSGAEFTLTISSLQPDDFATYYCQGYFYFISRTYVNSFGCGTKLTVLGSTGSGSKPGSGEGSTKGEVQLVESGGGLVQPGGSLRLSCTASGFTISTNAMSWVRQAPGKCLEWVGVITGRDITYYASWAKGRFTISRDTSKNTVYLQMNSLRAEDTAVYYCARDGGSSAITSNNIWGQGTLVTVSTGGGGSGGGGSFLNSLFNQEVQIPLTESYCGPCPKNWICYKNNCYQFFDESKNWYESQASCMSQNASLLKVYSKEDQDLLKLVKSYHWMGLVHIPTNGSWQWEDGSILSPNLLTIIEMQKGDCALYASSFKGYIENCSTPNTYICMQRTVASTKGPSVFPLAPSSKSTSGGTAALGCLVKDYFPEPVTVSWNSGALTSGVHTFPAVLQSSGLYSLSSVVTVPSSSLGTQTYICNVNHKPSNTKVDKRVEPKSCDKTHTCPPCPAPEAAGGPSVFLFPPKPKDTLMISRTPEVTCVVVDVSHEDPEVKFNWYVDGVEVHNAKTKPREEQYASTYRVVSVLTVLHQDWLNGKEYKCAVSNKALPAPIEKTISKAKGQPREPQVCTLPPSRDELTKNQVSLSCAVKGFYPSDIAVEWESNGQPENNYKTTPPVLDSDGSFFLVSKLTVDKSRWQQGNVFSCSVMHEALHNHYTQKSLSLSPGGGGGSGGGGSRSLVESGGGLVQPGGSLRLSCTASGFTISSYHMQWVRQAPGKCLEYIGTISSGGNVYYASSARGRFTISRPSSKNTVDLQMNSLRAEDTAVYYCARDSGYSDPMWGQGTLVTVSSGGGGSGGGGSGGGGSGGGGSDVVMTQSPSSVSASVGDRVTITCQASQNIRTYLSWYQQKPGKAPKLLIYAAANLASGVPSRFSGSGSGTDFTLTISDLEPGDAATYYCQSTYLGTDYVGGAFGCGTKVEIK
chain 2: ENVLTQSPASLSASPGERVTITCSASSSVSYMHWYQQKPGQAPKLWIYDTSKLASGVPSRFSGSGSGNDHTLTISSMEPEDFATYYCFQGSVYPFTFGQGTKLEIKGSTGSGSKPGSGEGSTKGQVTLKESGPGLVQPGQTLRLTCAFSGFSLSTSGMGVGWIRQPPGKGLEWLAHIWWDDDKRYNPALKSRLTISKDTSKNQVYLQMNSLDAEDTAVYYCARMELWSYYFDYWGQGTLVTVSTGGGGSGGGGSFLNSLFNQEVQIPLTESYCGPCPKNWICYKNNCYQFFDESKNWYESQASCMSQNASLLKVYSKEDQDLLKLVKSYHWMGLVHIPTNGSWQWEDGSILSPNLLTIIEMQKGDCALYASSFKGYIENCSTPNTYICMQRTVRTVAAPSVFIFPPSDEQLKSGTASVVCLLNNFYPREAKVQWKVDNALQSGNSQESVTEQDSKDSTYSLSSTLTLSKADYEKHKVYACEVTHQGLSSPVTKSFNRGECGG[human IgG1 Fc with L234A L235A N297A K322A S354C T366W (EU numbers) cut from this listing]GGGGSGGGGSEVQLLESGGGLVQPGGSLRLSCAASGFSFSSGYDMCWVRQAPGKCLEWIACIAAGSAGITYDANWAKGRFTISRDNSKNTLYLQMNSLRAEDTAVYYCARSAFSFDYAMDLWGQGTLVTVSSGGGGSGGGGSGGGGSGGGGSDIQMTQSPSTLSASVGDRVTITCQASQSISSHLNWYQQKPGKAPKLLIYKASTLASGVPSRFSGSGSGTEFTLTISSLQPDDFATYYCQQGYSWGNVDNVFGCGTKVEIK
notes: penta-miniGNC; D1 αCD3, D2 αCD19, D3 NKG2D receptor dimer, D4 α4-1BB, D5 αPD-L1
B2: human 4-1BB (receptor)
chain: not shown
notes: Soluble antigen in Octet; construct not described

What was measured:
[1] = target: T1, human CD3 (human, UniProt P07766 23-126; P04234 22-105); assay: BLI (Octet); conditions not stated
T1 construct: also called His-tagged human CD3; human CD3 (Acro CDD-H52W1)

[2] = target: B2; assay: BLI (Octet); conditions not stated
[3] = target: T2, human PD-L1 (human, UniProt Q9NZQ7 fragment); assay: BLI (Octet); conditions not stated
T2 construct: Soluble antigen in Octet; bought; also called human PD-L1 (Acro PD1-H5229)
T2 sequence (Q9NZQ7 19-238 limits assumed): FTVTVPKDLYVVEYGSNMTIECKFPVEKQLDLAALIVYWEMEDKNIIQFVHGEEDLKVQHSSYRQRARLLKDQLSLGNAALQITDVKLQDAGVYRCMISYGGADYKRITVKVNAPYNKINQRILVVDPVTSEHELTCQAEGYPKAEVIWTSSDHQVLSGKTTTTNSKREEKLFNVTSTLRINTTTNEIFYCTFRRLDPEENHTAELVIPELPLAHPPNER

[4] = target: T3, CD19 (UniProt P15391 20-291, limits assumed); assay: BLI (Octet); conditions not stated
T3 sequence (looked up): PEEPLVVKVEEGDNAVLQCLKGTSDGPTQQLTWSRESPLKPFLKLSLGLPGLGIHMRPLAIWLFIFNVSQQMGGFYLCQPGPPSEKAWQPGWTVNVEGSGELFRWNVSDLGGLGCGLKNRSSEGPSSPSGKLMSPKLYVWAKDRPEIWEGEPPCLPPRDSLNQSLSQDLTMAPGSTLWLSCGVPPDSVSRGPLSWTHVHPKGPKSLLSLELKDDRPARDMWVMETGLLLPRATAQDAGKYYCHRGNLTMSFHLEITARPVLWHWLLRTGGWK

[5] = target: NKG2D ligand; assay: BLI (Octet); conditions and ligand not stated
[6] = target: T4, SI-49P9; assay: BLI (Octet); conditions not stated; D4 is the ligand 41BBL
T4 construct: penta-miniGNC; D1 αCD3, D2 αCD19, D3 NKG2D receptor dimer, D4 41BBL, D5 αPD-L1

[7] = target: T5, SI-75P4; assay: BLI (Octet), binder on AHC sensor, 100 nM human antigen, 1:1 fit; D4 is the ligand 41BBL
T5 construct: penta-miniGNC; D1 αEGFR, D2 αHER3, D3 αCD3 (Fab), D4 41BBL (ligand of the 4-1BB receptor), D5 αPD-L1
T5 sequence (chain, as listed by the source, chain 1 of 2): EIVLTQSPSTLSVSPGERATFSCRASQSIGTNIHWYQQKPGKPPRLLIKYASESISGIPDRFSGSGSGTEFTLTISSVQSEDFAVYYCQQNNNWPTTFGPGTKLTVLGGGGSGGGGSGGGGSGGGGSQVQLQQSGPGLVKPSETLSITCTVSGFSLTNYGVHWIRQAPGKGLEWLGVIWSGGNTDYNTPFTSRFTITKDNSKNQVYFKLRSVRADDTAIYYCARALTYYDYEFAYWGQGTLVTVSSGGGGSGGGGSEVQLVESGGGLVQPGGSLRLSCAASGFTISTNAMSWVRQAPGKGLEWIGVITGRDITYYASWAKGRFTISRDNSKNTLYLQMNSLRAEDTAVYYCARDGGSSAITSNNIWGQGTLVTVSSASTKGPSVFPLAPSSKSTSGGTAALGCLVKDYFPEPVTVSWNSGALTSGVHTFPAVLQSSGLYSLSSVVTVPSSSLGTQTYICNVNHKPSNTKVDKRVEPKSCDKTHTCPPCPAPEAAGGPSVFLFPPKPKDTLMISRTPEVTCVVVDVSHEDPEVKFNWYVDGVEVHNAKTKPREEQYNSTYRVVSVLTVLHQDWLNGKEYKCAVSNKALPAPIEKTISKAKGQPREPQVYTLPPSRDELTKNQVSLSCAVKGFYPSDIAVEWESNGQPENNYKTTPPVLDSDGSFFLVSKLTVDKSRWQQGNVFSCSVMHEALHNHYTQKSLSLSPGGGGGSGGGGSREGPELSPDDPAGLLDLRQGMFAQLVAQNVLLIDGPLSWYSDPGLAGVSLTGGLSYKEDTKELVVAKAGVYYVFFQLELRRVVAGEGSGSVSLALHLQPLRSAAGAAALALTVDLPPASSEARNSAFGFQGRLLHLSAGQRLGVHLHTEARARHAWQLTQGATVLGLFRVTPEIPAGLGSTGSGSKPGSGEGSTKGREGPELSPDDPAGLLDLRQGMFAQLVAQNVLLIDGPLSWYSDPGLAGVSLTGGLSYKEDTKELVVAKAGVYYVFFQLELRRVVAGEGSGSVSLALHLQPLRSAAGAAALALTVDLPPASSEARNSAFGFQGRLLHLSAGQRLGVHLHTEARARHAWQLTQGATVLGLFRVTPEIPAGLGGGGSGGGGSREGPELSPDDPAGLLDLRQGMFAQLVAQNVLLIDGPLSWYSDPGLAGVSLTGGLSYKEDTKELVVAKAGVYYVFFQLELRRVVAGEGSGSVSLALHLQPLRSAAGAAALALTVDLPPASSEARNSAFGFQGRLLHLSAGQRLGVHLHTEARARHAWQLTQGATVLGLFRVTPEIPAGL
T5 sequence (chain, as listed by the source, chain 2 of 2): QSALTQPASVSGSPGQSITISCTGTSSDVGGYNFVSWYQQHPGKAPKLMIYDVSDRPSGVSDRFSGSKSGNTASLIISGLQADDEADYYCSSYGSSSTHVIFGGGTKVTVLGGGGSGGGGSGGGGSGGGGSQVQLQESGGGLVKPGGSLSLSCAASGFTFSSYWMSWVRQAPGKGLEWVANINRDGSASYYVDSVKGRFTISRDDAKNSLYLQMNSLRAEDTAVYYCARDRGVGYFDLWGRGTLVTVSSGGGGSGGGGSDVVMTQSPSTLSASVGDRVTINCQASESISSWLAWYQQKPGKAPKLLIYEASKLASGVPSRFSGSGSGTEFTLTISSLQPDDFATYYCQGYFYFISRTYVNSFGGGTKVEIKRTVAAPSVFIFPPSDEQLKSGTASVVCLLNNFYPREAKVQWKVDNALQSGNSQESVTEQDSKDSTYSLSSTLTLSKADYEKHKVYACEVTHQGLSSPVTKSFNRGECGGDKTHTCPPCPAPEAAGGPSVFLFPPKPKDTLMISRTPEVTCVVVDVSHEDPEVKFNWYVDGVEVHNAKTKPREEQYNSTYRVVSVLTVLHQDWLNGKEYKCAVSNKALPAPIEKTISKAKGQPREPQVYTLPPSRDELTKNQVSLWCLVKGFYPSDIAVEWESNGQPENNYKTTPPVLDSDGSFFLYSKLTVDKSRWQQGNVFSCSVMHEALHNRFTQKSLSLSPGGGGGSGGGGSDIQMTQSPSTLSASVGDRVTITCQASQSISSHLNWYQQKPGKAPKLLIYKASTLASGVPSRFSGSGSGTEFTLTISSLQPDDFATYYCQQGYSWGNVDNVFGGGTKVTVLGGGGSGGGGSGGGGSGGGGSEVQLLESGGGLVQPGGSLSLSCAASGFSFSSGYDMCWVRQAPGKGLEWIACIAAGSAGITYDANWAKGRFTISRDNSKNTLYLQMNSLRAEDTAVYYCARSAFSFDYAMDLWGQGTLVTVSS

Chain of human CD3 (P07766 23-126, chain 1 of 2): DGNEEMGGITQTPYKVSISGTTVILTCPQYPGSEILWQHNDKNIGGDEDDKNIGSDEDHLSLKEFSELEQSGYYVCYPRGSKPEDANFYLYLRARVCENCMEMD
Chain of human CD3 (P04234 22-105, chain 2 of 2, further chain): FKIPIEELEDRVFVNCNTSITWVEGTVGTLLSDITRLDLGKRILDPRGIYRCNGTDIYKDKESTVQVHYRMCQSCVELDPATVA

Binder	Kd [1] [nM]	Kd [2] [nM]	Kd [3] [nM]	Kd [4] [nM]	Kd [5] [nM]	Kd [6] [nM]	Kd [7] [nM]
B1	36.3	7.71	1.08	2.98	24.3	–	–
B2	–	–	–	–	–	112	115
